Experimental data as given in PubChem BioAssay AID686970 (National Center for Advancing Translational Sciences (NCATS), 2013).
The whole screen tested about 360,000 compounds, of which about 6,000 (1.7%) were called active. The inconclusive results got no clear call from the source; some entries with a clear call stand among them for comparison. The call rests on the fitted dose curve; in most records, active means well fitted cell-killing curve with a large enough effect; inconclusive means small, poorly fitted or top-dose-only effect, or effect the other way; inactive means flat fitted curve, though single readings scatter. Potencies of inconclusive entries are left out as doubtful fits.

Assay: qHTS for induction of synthetic lethality in tumor cells producing 2HG: qHTS for the HT-1080-NT fibrosarcoma cell line;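 further: NT is the 2HG producing partner of a matched IDH1 knockdown line; nearly all actives have a fitted effect of over 55% in size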;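 on activity, negative = less viability: 0% = DMSO-treated cells and -100% = media-only wells without cells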
Conditions: HT-1080-NT fibrosarcoma viability, CellTiter-Glo ATP luminescence, 48 h; activity, negative = less viability: at 46.1 µM (top of the series) unless noted
Outline: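 HT-1080-NT; 750 cells/well; 5% FBS RPMI; 48 h compound, 37 degrees C; CellTiter-Glo luminescence; curve fitting and curve-class assignment.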
Potency means the concentration at half of the fitted maximal effect; tags describe the fitted curve by direction and shape.

SMILES	Potency	activity, negative = less viability
COc1ccc(NC(=O)c2cc(CN3C(=O)c4ccccc4C3=O)ccc2OC)cn1	inconclusive [cytotoxic, partial curve]	
O=S(Cc1ccc(Cl)cc1)CC(O)COCc1ccc(Cl)cc1 (stereo unspecified)		inactive: -4.02%
CC(=O)Nc1cc(-c2ccc(C(=O)NC3CC3)cc2)cn2c(-c3cccc(C(C)=O)c3)cnc12	active: 14.6 µM	
CC(=O)Nc1cccc(-c2ccnc3c2CC(C)(C(=O)Nc2ccc(Cl)c(C(F)(F)F)c2)O3)c1 (stereo unspecified)	inconclusive [cytotoxic, single point]	
CC(C)(C)c1cc(C(=O)CCN2CCOCC2)cc(C(C)(C)C)c1O	inconclusive [cytotoxic, single point]	
FC(F)(F)c1cnc(NNC(=S)Nc2ccccc2Cl)c(Cl)c1	inconclusive [cytotoxic, single point]	
COc1ccc(CSc2nc3ccccc3c(=O)n2CCCN2CCOCC2)cc1F	inconclusive [cytotoxic, single point]	
CC1(CCc2ccc3c(c2)OCO3)NC(=O)c2ccccc2N1 (stereo unspecified)	inconclusive [cytotoxic, single point]	
CCCCN1C[C@H](c2ccc(Br)cc2)[C@@H](CC(=O)Nc2ccc(Br)cc2)C1=O		inactive: -4.62%
CCc1ccc(S(=O)(=O)NCc2cn3cccc(C)c3n2)s1		inactive: -7.36%
CC(C)Nc1nc(NCCOc2ccccc2)c2sccc2n1	active: 25.9 µM	
CC1(C(=O)Nc2cccc(C(F)(F)F)c2)Cc2c(-c3cccc(C(F)(F)F)c3)ccnc2O1 (stereo unspecified)	inconclusive [cytotoxic, single point]	
CC(Sc1nnc(Nc2ccccc2)s1)C(=O)Nc1nc(-c2ccccc2)cs1 (stereo unspecified)	inconclusive [cytotoxic, partial curve]	
Cc1ccc2[nH]c3c(N4CCc5ccccc5C4)ncnc3c2c1	active: 20.6 µM	
CC(C)(C)c1ccc(Oc2ccc(NC(=O)c3cccs3)cn2)cc1	active: 14.6 µM	
COc1cc(OC)cc(C(=O)N/N=C/c2ccc(OC)c(COc3ccc4ccccc4c3)c2)c1	inconclusive [cytotoxic, single point]	
Cn1c(C(=O)NCCC2=CCCCC2)cc2c(=O)n3ccccc3nc21	inconclusive [rising, partial curve, poor fit]	
COC(=O)C1=CN(c2ccc(OC)cc2OC)C(N)=C(C#N)C1c1cccc([N+](=O)[O-])c1 (stereo unspecified)		inconclusive: -20.9% [cytotoxic]
CC1=CC(C)(C(Cl)(Cl)Cl)C(C)=CC1=NO (stereo unspecified)		inactive: -22.2%
CCOc1cccc(C2NC(=S)NC(C)=C2C(=O)Nc2ccccc2)c1 (stereo unspecified)	inconclusive [cytotoxic, single point]	
NC(=S)N(c1ccccc1)c1ccccc1		inactive: 8.04%
COC(=O)CCCC1=CC2=CC(=O)C(C)(OC(=O)CCc3ccccc3)C(=O)C2=CO1 (stereo unspecified)		inconclusive: -8.93% [cytotoxic]
CC1(C(=O)NC2CCCC2)CCN1C(=O)Cc1ccc(-c2ccccc2)cc1 (stereo unspecified)	inconclusive [cytotoxic, single point]	
O=C(CN1CCN(C(=O)c2ccco2)CC1)Nc1cc(Cl)ccc1Cl		inactive: -0.0028%

SMILES	Potency	activity, negative = less viability
CO[C@H]1CN(C)C(=O)c2ccc(NC(=O)C3CCC3)cc2OC[C@H](C)N(CC2CCCCC2)C[C@@H]1C	inconclusive [cytotoxic, single point]	
COCc1ccc(C(=O)NC2CCCc3c2cnn3-c2cc(C)cc(C)c2)s1 (stereo unspecified)	inconclusive [cytotoxic, single point]	
CC1=N/C(=C/c2ccc([N+](=O)[O-])cc2)C(=O)N1c1ccc(Cl)cc1Cl		inactive: 1.72%
Cc1cc(Nc2cnc3ccccc3n2)n(-c2ccccc2)n1	inconclusive [cytotoxic, single point]	
O=C(Nc1nccs1)c1cc2c(s1)CCCCC2	inconclusive [cytotoxic, partial curve]	
CCN1CCN(C2=C(NS(=O)(=O)c3ccccc3)C(=O)c3ccccc3C2=O)CC1		inactive: 4.54%
O=C(Nc1ccc2c(c1)oc1ccc(S(=O)(=O)N3CCCC3)cc12)C1CC1	inconclusive [cytotoxic, partial curve]	
N#Cc1ccccc1Sc1ccccc1C(=O)Nc1ccc2ccccc2c1		inactive: -13.1%
Cc1ccc(NS(=O)(=O)c2ccc(Br)s2)nc1		inactive: 4.14%
CCOC(=O)CSc1nc(N)c(C#N)cc1C#N		inactive: 1.93%
COc1ccccc1C1C=C(c2ccccc2)Nc2nnnn21 (stereo unspecified)	inconclusive [cytotoxic, single point]	
O=C(COC(=O)CCC(=O)c1cccs1)NCc1cccs1	inconclusive [rising, single point]	
CC(=O)Nc1ccc(S(=O)(=O)Oc2ccc(/C=N/NC(=O)c3ccc(Cl)cc3)cc2)cc1		inconclusive: -36.1% [cytotoxic]
COc1cc(CNC(=O)c2cc(-c3cc(Cl)ccc3OC)n[nH]2)cc(OC)c1		inactive: -28.5%
CCc1cc(=O)oc2cc(C)cc(OC(C)C(=O)NCCCn3ccnc3)c12 (stereo unspecified)		inactive: 3.67%
Fc1ccc(-c2nc3ccc(Cl)cn3c2Cc2cccc(Cl)c2)cc1	inconclusive [cytotoxic, partial curve]	
Cc1cc2nc(-c3ccc(SCc4ccc(C#N)cc4)nc3)[nH]c2cc1C	inconclusive [cytotoxic, single point]	
O=C(Nc1ccc(Cl)c([N+](=O)[O-])c1)C(Sc1ccccc1)c1ccccc1 (stereo unspecified)	inconclusive [cytotoxic, single point]	
COc1cnc(-c2ccccn2)nc1N(C)c1ccccc1	inconclusive [cytotoxic, single point]	
CCOc1ccccc1C(=O)NCC(=O)Nc1ccc2c(c1)OCO2		inactive: -28.1%
S=C(NCc1ccco1)N1CCC(c2nc3ccccc3o2)CC1	inconclusive [rising, single point]	
Cc1ccc(-c2csc(NC3OC(=O)c4ccccc43)n2)cc1 (stereo unspecified)	inconclusive [cytotoxic, single point]	
O=C1S/C(=C\c2ccc(O)c([N+](=O)[O-])c2)C(=O)N1c1ccccc1Cl	inconclusive [cytotoxic, single point]	
CSc1nc(N(C)NC(=O)c2ccccc2)c2ccccc2n1	active: 0.58 µM	

SMILES	Potency	activity, negative = less viability
O=C(Nc1nc2cc3c(cc2s1)OCO3)C1=COCCO1	active: 13 µM	
C[C@H](NS(=O)(=O)c1ccc2c(c1)OCCCO2)C(=O)N1CCN(Cc2ccc(C#N)cc2)CC1		inactive: -3.82%
O=C(Cn1cnc2c(cnn2-c2ccc(Cl)cc2)c1=O)N1CCN(c2ccccc2)CC1	inconclusive [cytotoxic, single point]	
CC(=O)OCC(=O)[C@@]1(O)CC[C@H]2[C@@H]3CCC4=CC(=O)C=C[C@]4(C)[C@H]3[C@@H](O)C[C@@]21C	inconclusive [rising, partial curve]	
Cn1c2c(c(=O)n(C)c1=O)C1(C(=O)Nc3ccccc31)C(C#N)=C(N)O2 (stereo unspecified)		inactive: 3.6%
CS(=O)(=O)N1CCc2cc(S(=O)(=O)Nc3ccc4oc5c(c4c3)CCCC5)ccc21	inconclusive [cytotoxic, single point]	
COc1ccc2c(c1)c(C(=O)N/N=C/c1ccc(Cl)cc1)c(C)n2C	inconclusive [cytotoxic, single point]	
COc1cc(C)ccc1S(=O)(=O)NC(=O)C1(C)CCN1C(=O)Cc1ccccc1Cl (stereo unspecified)		inactive: 14.2%
COc1cc(C2C3=C(COC3=O)Oc3cc4c(cc32)OCO4)ccc1OC(C)=O (stereo unspecified)	inconclusive [cytotoxic, full curve]	
COc1ccc(/C=C/C(=O)c2ccc3c(c2)OCO3)c(OC)c1	inconclusive [cytotoxic, single point]	
O=C1NC(Cc2ccc(O)cc2)c2nc3ccc(Cl)cc3c(=O)n2-c2cc3ccccc3cc21 (stereo unspecified)	active: 14.6 µM	
O=S(=O)(c1ccc(Nc2ccc(-c3ccc4c(c3)OCCO4)nn2)cc1)N1CCCC1	active: 15.8 µM	
COc1ccc(-c2sc(Nc3ccccc3)n[n+]2-c2ccc(F)cc2)cc1Br	inconclusive [cytotoxic, partial curve]	
Cc1ccc(S(=O)(=O)Nc2cccc(-c3ccc4nncn4n3)c2)cc1	active: 4.61 µM	
CC(=O)Nc1ccc(S(=O)(=O)N2CCCc3ccccc32)cc1	active: 8.91 µM	
COc1cc(C(O)c2nc(-c3cccc(C(C)C)c3)cs2)ccc1F (stereo unspecified)		inconclusive: -43.6%
COCCn1c(SCc2ccc(F)cc2)nc2c1c(=O)[nH]c(=O)n2C		inactive: -14.8%
CCOc1cc(CNCCO)cc(Br)c1OCc1ccccc1Cl	inconclusive [cytotoxic, single point]	
C=CCc1ccc(OCCOc2cccc3ccc(C)nc23)c(OC)c1	inconclusive [cytotoxic, single point]	
COc1ccc(/C=C/C(=O)c2ccc3c4c(cccc24)CC3)cc1		inactive: -9.35%
Cc1cc(Nc2ccc(F)c(F)c2)nc(-c2ccccc2O)n1	inconclusive [cytotoxic, single point]	
COc1nc(=O)n(C2C=CC(=O)O2)cc1F (stereo unspecified)	inconclusive [cytotoxic, single point]	
N#CC1=C(SCC(=O)c2ccccc2)NC2=C(C(=O)CCC2)C1c1ccco1 (stereo unspecified)	inconclusive [cytotoxic, full curve]	
